Data reported in the supplement of paper PMC3334620.
Over roughly 33,000 sequences, “E-score (-0.5 to 0.5)” has its median near -0.035; the highest 2% begin near 0.34. This is one part of the list.

molecular target: T1, Mot3 (UniProt P54785); assay: PBM E-score (8-mer binding enrichment) (E-score (-0.5 to 0.5)); higher = stronger / more preferred TF binding; most listed sequences are background and not binding sites; details: protein concentration: 200 nM; construct: GST-full length
T1 sequence: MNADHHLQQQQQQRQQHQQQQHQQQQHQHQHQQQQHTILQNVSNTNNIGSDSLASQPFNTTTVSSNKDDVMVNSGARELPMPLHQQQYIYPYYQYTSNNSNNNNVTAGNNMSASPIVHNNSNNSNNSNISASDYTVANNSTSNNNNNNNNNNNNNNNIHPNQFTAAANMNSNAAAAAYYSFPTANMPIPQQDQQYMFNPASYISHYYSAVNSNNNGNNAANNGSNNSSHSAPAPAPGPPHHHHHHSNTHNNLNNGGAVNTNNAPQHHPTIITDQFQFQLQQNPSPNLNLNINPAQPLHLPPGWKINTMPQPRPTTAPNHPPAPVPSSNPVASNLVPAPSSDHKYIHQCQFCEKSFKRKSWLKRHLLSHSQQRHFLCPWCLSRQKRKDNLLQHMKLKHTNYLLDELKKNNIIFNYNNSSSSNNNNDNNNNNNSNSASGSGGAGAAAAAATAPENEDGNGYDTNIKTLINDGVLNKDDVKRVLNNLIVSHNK
Procedure, shortened: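 GST-tagged yeast TFs (full-length or DNA-binding domain) were made by PURExpress in vitro transcription/translation and applied at about 100-200 nM to universal all-10-mer Agilent arrays. The arrays were made double-stranded by primer extension, on fresh or once-stripped slides. Bound protein was detected with fluorescent anti-GST, and scans were normalised with masliner. Each ungapped eight-base word, pooled with its reverse complement, received an E-score (modified Wilcoxon-Mann-Whitney statistic) from the Universal PBM Analysis Suite.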

Row | Sequence | PBM E-score
1 | ACAAATCC | -0.118
2 | CCGTAAGC | -0.243
3 | GGGTCATA | -0.0102
4 | AACACGGG | 0.305
5 | CCACGTGG | -0.352
6 | CACCTTGA | 0.00659
7 | ACCCACGC | -0.0754
8 | TTCGAGAA | -0.0831
9 | CCTCGCCA | -0.221
10 | GGCGGCTA | -0.234
11 | AGATCCTA | -0.107
12 | AGACGCAC | -0.164
13 | CGCTTTCC | 0.0246
14 | CAGCCAAA | 0.0214
15 | AAGTGGTG | -0.133
16 | CCGAGTCG | -0.246
17 | ACACTCAC | -0.0219
18 | ACTCTTAA | -0.0394
19 | ACTCATGC | -0.164
20 | TAACGGCA | -0.0443
21 | AACCTGCG | 0.0347
22 | ATAACCGC | -0.0312
23 | AACCCTTG | 0.0611
24 | ATCAGGCG | 0.0225
25 | AGCTAATA | 0.0927

Row | Sequence | PBM E-score
26 | CATCGGAA | -0.0362
27 | AATGCACA | 0.193
28 | GAGTACAC | 0.209
29 | CTAGGTTA | 0.0412
30 | GTGGAAAC | -0.176
31 | CATAAACA | 0.158
32 | ACAGGTCT | -0.243
33 | AAATTGAG | -0.00014
34 | ATTAGCGG | -0.112
35 | CGTTTAGC | -0.0577
36 | GACTGGAC | -0.24
37 | CTAGACTA | -0.24
38 | CTAGGGGC | -0.293
39 | CTTAAACA | -0.00812
40 | GCCAGTAC | -0.0423
41 | CGCAACCC | -0.0416
42 | CTGTCAGC | -0.305
43 | ATCGAGGG | -0.206
44 | ACTACTGG | -0.0803
45 | CCTCATCG | 0.00434
46 | CGAATGCC | -0.109
47 | GAGGTAGA | -0.00895
48 | CTTTAGTC | -0.152
49 | ATGCCGCG | -0.133
50 | GATTAGAA | -0.0329

Row | Sequence | PBM E-score
51 | CATGTACA | 0.387
52 | CCGTTTAC | 0.214
53 | CTTCAGAC | -0.049
54 | CTATGTTA | 0.329
55 | ACTATGCG | -0.0757
56 | GCGTACAA | 0.146
57 | CACGGCTC | 0.0397
58 | GGGCAAGA | 0.0525
59 | ACTCAGCG | 0.00128
60 | CTCGCATC | -0.165
61 | AGCATGAA | 0.0148
62 | AATGGTCT | -0.176
63 | ATGACCTC | -0.242
64 | CTATTTGC | 0.0068
65 | GAGTAGGA | -0.0438
66 | AAGATATC | -0.189
67 | CAACTAGA | 0.0435
68 | CTTATATA | 0.00666
69 | AAATTACA | 0.365
70 | CGCACTTC | -0.213
71 | GCGGCTTA | -0.229
72 | GTCAAATA | 0.0321
73 | CCTCGTTA | 0.176
74 | AATTGGCG | -0.044
75 | CCGTGACG | -0.056

Row | Sequence | PBM E-score
76 | AACTGCGC | -0.045
77 | AGGGGAAA | -0.00744
78 | ATTACTCC | 0.074
79 | AAGATTGT | 0.126
80 | AAGATTTG | -0.0599
81 | CAACGTCC | -0.0728
82 | GTAGCCAC | -0.169
83 | GATGATGA | -0.243
84 | CTAGCGCC | -0.116
85 | ACCACACG | 0.245
86 | GCCTGGTA | 0.129
87 | CATGGAGG | -0.0382
88 | GGTCTAAC | -0.21
89 | CTTTCAGC | -0.194
90 | GCCGAGAA | -0.133
91 | AGTTTCTA | -0.0478
92 | CAAGCACC | -0.00018
93 | GACTCGAC | -0.113
94 | CTTACCTA | 0.175
95 | CTCCAAAA | -0.179
96 | CGGCTATA | -0.0444
97 | AACCCCTT | 0.139
98 | TCGATTAA | 0.183
99 | AGTGCGCC | -0.0847
100 | ATTTGGTC | 0.00352

Row | Sequence | PBM E-score
101 | ACATAACC | 0.151
102 | CAGCGTGG | -0.126
103 | CCTTTTGA | 0.214
104 | ACGCATCC | 0.025
105 | CACTACCA | 0.00427
106 | AAGTGTGC | 0.1
107 | GCTGTTAC | -0.0841
108 | GTAGAGAC | -0.0205
109 | AACCAACT | 0.0514
110 | GCAGGGCA | 0.0868
111 | ACGCTCAG | -0.226
112 | AAAACATG | 0.351
113 | CAGTTACA | 0.145
114 | AGCATAAT | -0.0134
115 | GCCCTCTA | -0.212
116 | GCGATTCA | -0.185
117 | AGCTGATC | -0.17
118 | CTCTCGAC | -0.285
119 | AGTGAATC | -0.17
120 | AAGGACCT | -0.0503
121 | CGGTTAAG | 0.00195
122 | CCGATCTC | -0.261
123 | CGGTACAG | 0.00419
124 | CGATGACG | -0.139
125 | GCCAGTCA | -0.159

Row | Sequence | PBM E-score
126 | ACTCAGTC | -0.0479
127 | GAATCCCC | -0.143
128 | CACATCCG | -0.00122
129 | GCAAGAGC | 0.113
130 | AGTCGAGA | -0.184
131 | ATCATCGA | -0.0664
132 | TACGCAAA | 0.206
133 | ATAGAACG | 0.132
134 | TCAACGGA | -0.113
135 | CAACGATC | -0.11
136 | AAAGGCAG | 0.282
137 | TAGTGGCA | -0.239
138 | CACTGTGA | -0.103
139 | CTCTTGAA | -0.132
140 | AGATATCG | -0.126
141 | AGGGACCG | -0.265
142 | CGACGGGA | -0.118
143 | AGTAGTAA | 0.119
144 | AGGAGCGA | -0.242
145 | ATTGGTCA | 0.0185
146 | ATCCGGCA | -0.155
147 | ATGACTAG | 0.0793
148 | AATTAGAC | 0.0216
149 | ACCTGGCC | -0.00623
150 | CATATACG | 0.226

Row | Sequence | PBM E-score
151 | ACGGAAAC | -0.122
152 | ACCGTTAA | 0.0703
153 | GAGTTTGA | -0.0109
154 | AACAAGGA | 0.227
155 | GGAGCTCC | 0.0683
156 | CCTGGGCG | -0.153
157 | ATTTATCG | 0.0319
158 | CGAGTGCC | 0.247
159 | GATCGCGC | 0.0714
160 | TCCCTAGA | -0.244
161 | AAGAGGCT | -0.222
162 | ACATCTTC | 0.0216
163 | GGTCGGCA | -0.278
164 | CACGATAA | 0.215
165 | CATGCCGC | -0.137
166 | CAACCTGA | -0.0558
167 | CGTTCATA | 0.146
168 | CGTTTGGC | -0.0998
169 | AGGTTGTG | 0.0214
170 | ATGGCCGC | -0.233
171 | CACGTAGA | 0.308
172 | CCCATTCA | -0.178
